Experiment: ThermoFluor thermostability (Tm)
Type: physicochemical
Settings: Heavy chain screening Round 1; Fab, paired with light chain AB200_VK6

Molecule	Tm
AB200-R1a-Fab_VH48 (antibody) heavy: QVQLVQSGAEVKKPGSSVKVSCKASGGTFSDYWMHWVRQAPGQGLEWMGATYRGHSDTYYNQRFKGRVTITADKSTSTAYMELSSLRSEDTAVYYCARGAIYHGYDVMDNWGQGTLVTVSSASTKGPSVFPLAPSSKSTSGGTAALGCLVKDYFPEPVTVSWNSGALTSGVHTFPAVLQSSGLYSLSSVVTVPSSSLGTQTYICNVNHKPSNTKVDKKVEPKSC light: DIQMTQSPSSLSASVGDRVTITCSATQDISNYLNWYQQKPGKAPKLLIYFTSNLQSGVPSRFSGSGSGTDFTLTISSLQPEDFATYYCQQYRKLPWTFGQGTKLEIKRTVAAPSVFIFPPSDEQLKSGTASVVCLLNNFYPREAKVQWKVDNALQSGNSQESVTEQDSKDSTYSLSSTLTLSKADYEKHKVYACEVTHQGLSSPVTKSFNRGEC	80.234 °C
AB200-R1a-Fab_VH4 (antibody) heavy: QVQLVQSGAEVKKPGSSVKVSCKATGGTFSNYWMHWVRQAPGQGLEWMGATYRGHSNTYYDQKFKGRVTITADKSTSTAYMELSSLRSEDTAVYYCARGAIYHGYDVLDNWGQGTLVTVSSASTKGPSVFPLAPSSKSTSGGTAALGCLVKDYFPEPVTVSWNSGALTSGVHTFPAVLQSSGLYSLSSVVTVPSSSLGTQTYICNVNHKPSNTKVDKKVEPKSC light: DIQMTQSPSSLSASVGDRVTITCSATQDISNYLNWYQQKPGKAPKLLIYFTSNLQSGVPSRFSGSGSGTDFTLTISSLQPEDFATYYCQQYRKLPWTFGQGTKLEIKRTVAAPSVFIFPPSDEQLKSGTASVVCLLNNFYPREAKVQWKVDNALQSGNSQESVTEQDSKDSTYSLSSTLTLSKADYEKHKVYACEVTHQGLSSPVTKSFNRGEC	78.011 °C
AB200-R1a-Fab_VH57 (antibody) heavy: QVQLVQSGAEVKKPGSSVKVSCKASGGTYSNYYMHWVRQAPGQGLEWMGATYRGHSETYYNQKFKGRVTITADKSTSTAYMELSSLRSEDTAVYYCARGAIYHGYDVLDNWGQGTLVTVSSASTKGPSVFPLAPSSKSTSGGTAALGCLVKDYFPEPVTVSWNSGALTSGVHTFPAVLQSSGLYSLSSVVTVPSSSLGTQTYICNVNHKPSNTKVDKKVEPKSC light: DIQMTQSPSSLSASVGDRVTITCSATQDISNYLNWYQQKPGKAPKLLIYFTSNLQSGVPSRFSGSGSGTDFTLTISSLQPEDFATYYCQQYRKLPWTFGQGTKLEIKRTVAAPSVFIFPPSDEQLKSGTASVVCLLNNFYPREAKVQWKVDNALQSGNSQESVTEQDSKDSTYSLSSTLTLSKADYEKHKVYACEVTHQGLSSPVTKSFNRGEC	80.273 °C
AB200-R1a-Fab_VH49 (antibody) heavy: QVQLVQSGAEVKKPGSSVKVSCKASGGTFSNYWIHWVRQAPGQGLEWMGASYRGHSDTYYNQKFKGRVTITADKSTSTAYMELSSLRSEDTAVYYCARGAIYHGYDVIDNWGQGTLVTVSSASTKGPSVFPLAPSSKSTSGGTAALGCLVKDYFPEPVTVSWNSGALTSGVHTFPAVLQSSGLYSLSSVVTVPSSSLGTQTYICNVNHKPSNTKVDKKVEPKSC light: DIQMTQSPSSLSASVGDRVTITCSATQDISNYLNWYQQKPGKAPKLLIYFTSNLQSGVPSRFSGSGSGTDFTLTISSLQPEDFATYYCQQYRKLPWTFGQGTKLEIKRTVAAPSVFIFPPSDEQLKSGTASVVCLLNNFYPREAKVQWKVDNALQSGNSQESVTEQDSKDSTYSLSSTLTLSKADYEKHKVYACEVTHQGLSSPVTKSFNRGEC	83.392 °C
AB200-R1a-Fab_VH54 (antibody) heavy: QVQLVQSGAEVKKPGSSVKVSCKASGGTFSNYWMHWVRQAPGQGLEWMGATYRGHGDTFYNQKFKGRVTITADKSTSTAYMELSSLRSEDTAVYYCARGAIYHGYDVLNNWGQGTLVTVSSASTKGPSVFPLAPSSKSTSGGTAALGCLVKDYFPEPVTVSWNSGALTSGVHTFPAVLQSSGLYSLSSVVTVPSSSLGTQTYICNVNHKPSNTKVDKKVEPKSC light: DIQMTQSPSSLSASVGDRVTITCSATQDISNYLNWYQQKPGKAPKLLIYFTSNLQSGVPSRFSGSGSGTDFTLTISSLQPEDFATYYCQQYRKLPWTFGQGTKLEIKRTVAAPSVFIFPPSDEQLKSGTASVVCLLNNFYPREAKVQWKVDNALQSGNSQESVTEQDSKDSTYSLSSTLTLSKADYEKHKVYACEVTHQGLSSPVTKSFNRGEC	79.432 °C
AB200-R1a-Fab_VH50 (antibody) heavy: QVQLVQSGAEVKKPGSSVKVSCKASGGTFSNYWMHWVRQAPGQGLEWMGATFRGHSDTYYNQKFKSRVTITADKSTSTAYMELSSLRSEDTAVYYCARGAVYHGYDVLDNWGQGTLVTVSSASTKGPSVFPLAPSSKSTSGGTAALGCLVKDYFPEPVTVSWNSGALTSGVHTFPAVLQSSGLYSLSSVVTVPSSSLGTQTYICNVNHKPSNTKVDKKVEPKSC light: DIQMTQSPSSLSASVGDRVTITCSATQDISNYLNWYQQKPGKAPKLLIYFTSNLQSGVPSRFSGSGSGTDFTLTISSLQPEDFATYYCQQYRKLPWTFGQGTKLEIKRTVAAPSVFIFPPSDEQLKSGTASVVCLLNNFYPREAKVQWKVDNALQSGNSQESVTEQDSKDSTYSLSSTLTLSKADYEKHKVYACEVTHQGLSSPVTKSFNRGEC	80.428 °C
AB200-R1a-Fab_VH3 (antibody) heavy: QVQLVQSGAEVKKPGSSVKVSCKASGGTFSNYWMSWVRQAPGQGLEWMGATYRGHSQTYYNQKFKGRVTITADKSTSTAYMELSSLRSEDTAVYYCARGAVYHGYDVLDNWGQGTLVTVSSASTKGPSVFPLAPSSKSTSGGTAALGCLVKDYFPEPVTVSWNSGALTSGVHTFPAVLQSSGLYSLSSVVTVPSSSLGTQTYICNVNHKPSNTKVDKKVEPKSC light: DIQMTQSPSSLSASVGDRVTITCSATQDISNYLNWYQQKPGKAPKLLIYFTSNLQSGVPSRFSGSGSGTDFTLTISSLQPEDFATYYCQQYRKLPWTFGQGTKLEIKRTVAAPSVFIFPPSDEQLKSGTASVVCLLNNFYPREAKVQWKVDNALQSGNSQESVTEQDSKDSTYSLSSTLTLSKADYEKHKVYACEVTHQGLSSPVTKSFNRGEC	78.657 °C
AB200-R1a-Fab_VH56 (antibody) heavy: QVQLVQSGAEVKKPGSSVKVSCKASGGTFSNYWIHWVRQAPGQGLEWMGATYRGHSDTYYNQKFRGRVTITADKSTSTAYMELSSLRSEDTAVYYCARGTIYHGYDVLDNWGQGTLVTVSSASTKGPSVFPLAPSSKSTSGGTAALGCLVKDYFPEPVTVSWNSGALTSGVHTFPAVLQSSGLYSLSSVVTVPSSSLGTQTYICNVNHKPSNTKVDKKVEPKSC light: DIQMTQSPSSLSASVGDRVTITCSATQDISNYLNWYQQKPGKAPKLLIYFTSNLQSGVPSRFSGSGSGTDFTLTISSLQPEDFATYYCQQYRKLPWTFGQGTKLEIKRTVAAPSVFIFPPSDEQLKSGTASVVCLLNNFYPREAKVQWKVDNALQSGNSQESVTEQDSKDSTYSLSSTLTLSKADYEKHKVYACEVTHQGLSSPVTKSFNRGEC	84.368 °C
AB200-R1a-Fab_VH52 (antibody) heavy: QVQLVQSGAEVKKPGSSVKVSCKASGGSFSDYWMHWVRQAPGQGLEWMGATYRGHSTTYYNQKFKGRVTITADKSTSTAYMELSSLRSEDTAVYYCARGAIYHGYDVLDNWGQGTLVTVSSASTKGPSVFPLAPSSKSTSGGTAALGCLVKDYFPEPVTVSWNSGALTSGVHTFPAVLQSSGLYSLSSVVTVPSSSLGTQTYICNVNHKPSNTKVDKKVEPKSC light: DIQMTQSPSSLSASVGDRVTITCSATQDISNYLNWYQQKPGKAPKLLIYFTSNLQSGVPSRFSGSGSGTDFTLTISSLQPEDFATYYCQQYRKLPWTFGQGTKLEIKRTVAAPSVFIFPPSDEQLKSGTASVVCLLNNFYPREAKVQWKVDNALQSGNSQESVTEQDSKDSTYSLSSTLTLSKADYEKHKVYACEVTHQGLSSPVTKSFNRGEC	82.845 °C
AB200-R1a-Fab_VH59 (antibody) heavy: QVQLVQSGAEVKKPGSSVKVSCKATGGTFSNYAMHWVRQAPGQGLEWMGASYRGHSDTYYNQKFKGRVTITADKSTSTAYMELSSLRSEDTAVYYCARGAIYHGYDVLDNWGQGTLVTVSSASTKGPSVFPLAPSSKSTSGGTAALGCLVKDYFPEPVTVSWNSGALTSGVHTFPAVLQSSGLYSLSSVVTVPSSSLGTQTYICNVNHKPSNTKVDKKVEPKSC light: DIQMTQSPSSLSASVGDRVTITCSATQDISNYLNWYQQKPGKAPKLLIYFTSNLQSGVPSRFSGSGSGTDFTLTISSLQPEDFATYYCQQYRKLPWTFGQGTKLEIKRTVAAPSVFIFPPSDEQLKSGTASVVCLLNNFYPREAKVQWKVDNALQSGNSQESVTEQDSKDSTYSLSSTLTLSKADYEKHKVYACEVTHQGLSSPVTKSFNRGEC	84.514 °C
AB200-R1a-Fab_VH60 (antibody) heavy: QVQLVQSGAEVKKPGSSVKVSCKASGGTFSSYWMHWVRQAPGQGLEWMGATYRIHSDSYYNQKFKGRVTITADKSTSTAYMELSSLRSEDTAVYYCARGAIYHGYDVLDNWGQGTLVTVSSASTKGPSVFPLAPSSKSTSGGTAALGCLVKDYFPEPVTVSWNSGALTSGVHTFPAVLQSSGLYSLSSVVTVPSSSLGTQTYICNVNHKPSNTKVDKKVEPKSC light: DIQMTQSPSSLSASVGDRVTITCSATQDISNYLNWYQQKPGKAPKLLIYFTSNLQSGVPSRFSGSGSGTDFTLTISSLQPEDFATYYCQQYRKLPWTFGQGTKLEIKRTVAAPSVFIFPPSDEQLKSGTASVVCLLNNFYPREAKVQWKVDNALQSGNSQESVTEQDSKDSTYSLSSTLTLSKADYEKHKVYACEVTHQGLSSPVTKSFNRGEC	79.241 °C
AB200-R1a-Fab_VH51 (antibody) heavy: QVQLVQSGAEVKKPGSSVKVSCKASGGTFSNYWMHWVRQAPGQGLEWMGATYRGHSDTNYNQKFKGRVTITADKSTSTAYMELSSLRSEDTAVYYCARGTIYHGFDVLDNWGQGTLVTVSSASTKGPSVFPLAPSSKSTSGGTAALGCLVKDYFPEPVTVSWNSGALTSGVHTFPAVLQSSGLYSLSSVVTVPSSSLGTQTYICNVNHKPSNTKVDKKVEPKSC light: DIQMTQSPSSLSASVGDRVTITCSATQDISNYLNWYQQKPGKAPKLLIYFTSNLQSGVPSRFSGSGSGTDFTLTISSLQPEDFATYYCQQYRKLPWTFGQGTKLEIKRTVAAPSVFIFPPSDEQLKSGTASVVCLLNNFYPREAKVQWKVDNALQSGNSQESVTEQDSKDSTYSLSSTLTLSKADYEKHKVYACEVTHQGLSSPVTKSFNRGEC	79.502 °C

From patent US12043670B2, “Anti-BCMA antibody-drug conjugates and methods of use” (Eisai R&D Management Co., Ltd., priority 2020, dated 2024)
